Some of the results follow. Sequences were assembled here from the parent chain. Values near 0.05 are background.

To fix the notation:
B1: TEV protease; numbered along this chain (parent)
chain: MGESLFKGPRDYNPISSSICHLTNESDGHTTSLYGIGFGPFIITNKHLFRRNNGTLVVQSLHGVFKVKDTTTLQQHLVDGRDMIIIRMPKDFPPFPQKLKFREPQREERICLVTTNFQTKSMSSMVSDTSCTFPSGDGIFWKHWIQTKDGQCGSPLVSTRDGFIVGIHSASNFTNTNNYFTSVPKNFMELLTNQEAQQWVSGWRLNADSVLWGGHKVFMVKPEEPFQPVKEATQL

In the assay the parent is B1. Nature of the assay: raw area under fraction-flipped curve 0-4 h after induction (AUC4h, not background-subtracted), DNA-recorder readout of cleavage of the substrate (dimensionless); higher = more cleavage of the substrate by the protease variant. The following applies: temperature: 34 °C; time window: 0-4 h after rhamnose induction. The procedure:
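In vivo DNA recorder in E. coli TOP10(DE3) ΔrhaA at 34 °C. Each TEVp single-site mutant (parent TEVp 0) is paired with a single-site variant of the 7-mer TEVs (canonical ENLYFQ|S). The substrate sits between flexible linkers in a Bxb1-sfGFP-TEVs-SsrA fusion, so cleavage stabilises Bxb1 and speeds flipping of a recombination array, read by NGS. The value is the raw area under the fraction-flipped curve over 0-4 h after rhamnose induction (AUC4h), with ≥20 reads per time point. It is not background-subtracted; inactive controls average about 0.047.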
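Also: Bxb1 expression induced with 0.2% (w/v) L-rhamnose at OD600 near 0.5, cultures sampled hourly, flipped fraction per protease–substrate barcode pair counted by paired-end Illumina sequencing.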

Regarding MGESLFKGPRDYNPISSSICHLTNESDGHTTSLYGIGFGPFIITNKHLFRRNNGTLVVQSLHGVFKVKDTTTLQQHLVDGRDMIIIRMPKDFPPFPQKLKFREPQREERICLVTTNFQTKSMSSMVSDTSCTFPSGDGIFWKHWIQTKDGQCGSPLVSTQDGFIVGIHSASNFTNTNNYFTSVPKNFMELLTNQEAQQWVSGWRLNADSVLWGGHKVFMVKPEEPFQPVKEATQL [R160Q], the “area with substrate CNLYFQS” value stood at 0.0722, the “area with substrate DNLYFQS” value came out at 0.0706, the “area with substrate GNLYFQS” value was found to be 0.0703 and the “area with substrate HNLYFQS” value stood at 0.0557. Also, the “area with substrate INLYFQS” value stood at 0.0942, the “area with substrate KNLYFQS” value stood at 0.0594, the “area with substrate LNLYFQS” value turned out to be 0.0589 and the “area with substrate MNLYFQS” value is 0.0614. Besides, the “area with substrate PNLYFQS” value was 0.0651, the “area with substrate RNLYFQS” value was determined as 0.0567, the “area with substrate TNLYFQS” value was 0.0944 and the “area with substrate VNLYFQS” value was found to be 0.0664. Also, the “area with substrate WNLYFQS” value came to 0.0664 and the “area with substrate YNLYFQS” value was 0.0712.

On to MGESLFKGPRDYNPISSSICHLTNESDGHTTSLYGIGFGPFIITNKHLFRRNNGTLVVQSLHGVFKVKDTTTLQQHLVDGRDMIIIRMPKDFPPFPQKLKFREPQREERICLVTTNFQTKSMSSMVSDTSCTFPSGDGIFWKHWIQTKDGQCGSPLVSTEDGFIVGIHSASNFTNTNNYFTSVPKNFMELLTNQEAQQWVSGWRLNADSVLWGGHKVFMVKPEEPFQPVKEATQL [R160E], for which the “area with substrate CNLYFQS” value worked out at 0.078, the “area with substrate DNLYFQS” value was determined as 0.0815, the “area with substrate FNLYFQS” value was 0.0945 and the “area with substrate GNLYFQS” value amounted to 0.0718. For the same variant, the “area with substrate HNLYFQS” value came out at 0.0783, the “area with substrate KNLYFQS” value stood at 0.0778, the “area with substrate LNLYFQS” value amounted to 0.0632 and the “area with substrate MNLYFQS” value was found to be 0.0628. The “area with substrate NNLYFQS” value was found to be 0.0389, the “area with substrate PNLYFQS” value worked out at 0.0674, the “area with substrate QNLYFQS” value worked out at 0.0734 and the “area with substrate SNLYFQS” value was 0.0777. Also, the “area with substrate TNLYFQS” value was 0.0653, the “area with substrate VNLYFQS” value came out at 0.0731, the “area with substrate WNLYFQS” value was 0.0621 and the “area with substrate YNLYFQS” value was found to be 0.0626.

MGESLFKGPRDYNPISSSICHLTNESDGHTTSLYGIGFGPFIITNKHLFRRNNGTLVVQSLHGVFKVKDTTTLQQHLVDGRDMIIIRMPKDFPPFPQKLKFREPQREERICLVTTNFQTKSMSSMVSDTSCTFPSGDGIFWKHWIQTKDGQCGSPLVSTCDGFIVGIHSASNFTNTNNYFTSVPKNFMELLTNQEAQQWVSGWRLNADSVLWGGHKVFMVKPEEPFQPVKEATQL [R160C]: the “area with substrate CNLYFQS” value came out at 0.0667, the “area with substrate DNLYFQS” value was 0.072, the “area with substrate FNLYFQS” value was 0.0718 and the “area with substrate GNLYFQS” value was determined as 0.074. The “area with substrate HNLYFQS” value turned out to be 0.0691, the “area with substrate KNLYFQS” value worked out at 0.0597, the “area with substrate LNLYFQS” value is 0.0593 and the “area with substrate MNLYFQS” value was 0.0667. The “area with substrate PNLYFQS” value turned out to be 0.0696, the “area with substrate SNLYFQS” value stood at 0.0991, the “area with substrate TNLYFQS” value is 0.0699 and the “area with substrate WNLYFQS” value is 0.0491. For the same variant, the “area with substrate YNLYFQS” value worked out at 0.0672.

In the case of MGESLFKGPRDYNPISSSICHLTNESDGHTTSLYGIGFGPFIITNKHLFRRNNGTLVVQSLHGVFKVKDTTTLQQHLVDGRDMIIIRMPKDFPPFPQKLKFREPQREERICLVTTNFQTKSMSSMVSDTSCTFPSGDGIFWKHWIQTKDGQCGSPLVSTGDGFIVGIHSASNFTNTNNYFTSVPKNFMELLTNQEAQQWVSGWRLNADSVLWGGHKVFMVKPEEPFQPVKEATQL [R160G], the “area with substrate CNLYFQS” value is 0.0731, the “area with substrate FNLYFQS” value turned out to be 0.0811, the “area with substrate HNLYFQS” value stood at 0.0597 and the “area with substrate KNLYFQS” value is 0.0704. The “area with substrate LNLYFQS” value worked out at 0.0642, the “area with substrate PNLYFQS” value is 0.0522, the “area with substrate SNLYFQS” value came to 0.0859 and the “area with substrate TNLYFQS” value amounted to 0.0848. Besides, the “area with substrate VNLYFQS” value was 0.0643, the “area with substrate WNLYFQS” value amounted to 0.0588 and the “area with substrate YNLYFQS” value amounted to 0.0651.

The record behind these values is the supplement of paper PMC12217912.
